{
  "source": "the supplement of paper PMC8728848",
  "binders": {"B1": {"name": "PX14379A-bvu-539-28-539 (Bacteroides vulgatus) (protein)", "chain": "EPYSEIIEEDYVPTEADEIALLATTYSQLRFVMDWYGLFDLQEESGDVIVTPTRPNGWDDGGTYKQMHKHTWDNQQGQPQSIWDYCYKGIANANKILKRADEGFFTEESKPKVVAEVKGVRALWYSILCDTHGNIPIQTSFSEEVPVQSTRKQVFDFIINELKEVMPNLPTEVNKSTYGRLTQWGAKCLMARMYLNAGVYTGTPMWNECLEQCNDIINSGLFSLETNYTDIFKTENSGCVETIFAIPYDEVYNEGDNNGPVFGAHMKFLSSNSRKVFNMQTTPWGGSAANPQFINSYDPDDMRLKYTWLQGDQYSPDGVLITTFPNKLPSIYKTDTDDGYRVGKYEIKVGAKSLLSNDFPYFRYTEVLLMKAECLLRLGQNETEAAHIVSQIRERAFRESAHPEKATVDAAWLKGDTHINYGTLDEKGQIDDAGNTEVVELGGLYDEWGWEFAAEARRRTDMIRFGTYQKKSWFNHTPTANDLNGNSILFPIHLDHLNTNPNLQQNPGYAGK"}},
  "key": {"[1]": {"molecular_target": "Neu5Gc(a2-8)Neu5Gc(a2-6)Gal(b1-4)GlcNAc", "test": "glycan array binding signal (z-score within array); higher = stronger binding", "conditions": "glycan notation: IUPAC condensed, linker removed", "in_short": "(§1)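 Columns mapping to the same glycan were averaged after glycan names were converted to IUPAC-condensed notation. The data come from 3228 arrays in the Consortium for Functional Glycomics database, limited to those with an available protein sequence. Binding is reported as a within-array Z-score averaged across arrays of one protein sequence and across linkers.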"}, "[2]": {"molecular_target": "Neu5Gc(b2-6)Gal(b1-4)GlcNAc", "test": "glycan array binding signal (z-score within array); higher = stronger binding", "conditions": "glycan notation: IUPAC condensed, linker removed", "in_short": "as §1"}},
  "note": "The other results are listed elsewhere or left out.",
  "data": [
    {"binder": "B1", "values": [
      {"measurement": "glycan array binding signal (z-score)", "setting": "[1]", "result": -0.098},
      {"measurement": "glycan array binding signal (z-score)", "setting": "[2]", "result": -0.376}
    ]}
  ]
}
